# Source: the supplement of paper PMC3334620
# The full ranking holds about 33,000 sequences; the median of “E-score (-0.5 to 0.5)” is about -0.056, and the highest 2% start at about 0.38. The list shows a part of the results.
# Molecular target: Stb4 (UniProt P50104)
# Assay: PBM E-score (8-mer binding enrichment) (E-score (-0.5 to 0.5)); higher = stronger / more preferred TF binding; most listed sequences are background and not binding sites
# Settings: protein concentration: 200 nM; construct: GST-DNA-binding domain
# Method: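 Universal 'all 10-mer' protein binding microarrays (Agilent AMADID 015681) probed with GST-tagged S. cerevisiae TFs (full-length or DBD) made by in vitro transcription/translation (PURExpress), about 100-200 nM. Bound TF was detected with fluorescent anti-GST. Each ungapped 8-mer (which stands for itself and its reverse complement) is scored by the PBM enrichment score (E-score), a modified Wilcoxon-Mann-Whitney statistic from -0.5 to +0.5, computed with the Universal PBM Analysis Suite. Scale: above 0.35 generally sequence-specific binding.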
row,Sequence,PBM E-score
1,CTTGTGCC,0.00595
2,ACCTTTCT,-0.204
3,CCTCTACC,0.0108
4,GTGTCCCA,0.0944
5,AGGTCGAG,-0.349
6,CAGCGAAC,-0.168
7,GGAGGCAA,-0.06
8,GCGCAATA,-0.058
9,ATCAGGGG,-0.228
10,AGAAGGGC,-0.0787
11,GGCACATA,0.00319
12,GGGCTGAA,-0.125
13,ATCGATTC,0.00194
14,CGTTGCCA,0.0133
15,CACACACG,0.11
16,AGAGATAA,-0.126
17,AGTTTTTC,0.149
18,CGTGGACC,0.0263
19,AACGCAGA,-0.103
20,ATCGGCTG,0.328
21,ACAAACCT,-0.0972
22,AATTTCAA,-0.148
23,GTAAGAAC,0.0227
24,CTCGTAAC,-0.107
25,TATCACGA,-0.138

row,Sequence,PBM E-score
1,ATATAAGG,0.119
2,CCATCAGG,-0.0466
3,GTAATATA,-0.0436
4,AACCTTCT,-0.0819
5,CGGGCACG,0.172
6,ACTGGGCA,-0.101
7,ACGTCGCA,-0.234
8,GTATGCTA,-0.106
9,CCGCTAGG,0.00559
10,CACCACAA,-0.0566
11,CCGCCGCA,0.0672
12,CGTCCACA,-0.0708
13,CTCTCATC,-0.0925
14,CCCGGATA,0.429
15,CGGATCAA,0.401
16,CGGACACC,0.0845
17,TAGTCTGA,-0.23
18,AGCGGAGC,0.0851
19,GGGCGTTA,-0.0608
20,GTCCGACA,0.213
21,GGCAAATA,0.208
22,CATCGGGA,0.331
23,ACACCGAC,0.119
24,ATGATTTA,-0.111
25,GTCCCATA,-0.129

row,Sequence,PBM E-score
1,CAGGAGGG,-0.158
2,GCAACCAA,-0.0398
3,CTTCCCAC,0.0645
4,ATCGACGG,0.0801
5,TCAACGCA,-0.189
6,GACCCTCC,0.133
7,AGAACTAA,0.0219
8,GGAACACC,0.146
9,GACGGTGA,-0.18
10,CCATTCGA,-0.154
11,CGTAGAGC,-0.0218
12,AAGATGTA,-0.299
13,CATAATTA,-0.0337
14,CTCCGAGC,0.428
15,ACGGGTTC,0.0648
16,ACCCTAAT,-0.335
17,GGCTCTAC,0.0648
18,TAAGACAA,-0.0198
19,AGTTTACA,-0.0886
20,AGCTACAG,-0.0607
21,AAATCCAT,-0.0925
22,ATGTGAAT,0.0167
23,CCAAGCGC,-0.0525
24,AAAGAAGC,-0.0836
25,CCTCCTTC,0.0231

row,Sequence,PBM E-score
1,ACAGCGCA,-0.205
2,ATACGGAT,0.311
3,ATCCGGCG,0.368
4,GACGTGGA,-0.159
5,AAGTAGCC,0.133
6,GCGAATTA,0.0154
7,AGAGAGAC,-0.214
8,AACATTTC,-0.091
9,GAGCTTGC,-0.0865
10,ACAATTGG,-0.247
11,CCGACTCC,0.32
12,GGTAATCA,0.129
13,CTTGCGTC,-0.226
14,TAAAAGGA,-0.0133
15,CCGACCGA,0.363
16,CTACCCCC,-0.081
17,GAGCCGCA,0.0237
18,AGGTACCG,0.254
19,CGAATTGC,0.114
20,GGACTATA,-0.0847
21,GAATCTGC,0.18
22,TCGCGGAA,0.315
23,GGACTGCC,-0.0264
24,ATTAGCAC,0.00903
25,ATTCTTAA,-0.00821

row,Sequence,PBM E-score
1,CCGGGAAC,0.381
2,ATCGGGTC,0.325
3,CAGCACTC,-0.236
4,CATCGCCG,0.129
5,ACCCCTTC,-0.0573
6,CCACCGGC,0.121
7,GATTTTGC,-0.0616
8,GCGACACC,-0.0246
9,CGTCTTTA,-0.0915
10,CCCTTGCC,-0.146
11,TCGTCAGA,-0.111
12,GGCGAGGA,-0.104
13,AGGATAGG,-0.239
14,GAGTTATA,-0.11
15,CCCTTTTA,-0.172
16,CGGACTAG,0.196
17,GCCATACC,-0.0292
18,GCGAGAGA,-0.206
19,CGTTAGAG,0.0598
20,ATGTGGTA,0.0112
21,GAGGACAC,0.0478
22,ACCTCCAC,0.0218
23,ACTGATCT,-0.0326
24,GCGGCAAC,0.183
25,ACATGCGA,-0.0931

row,Sequence,PBM E-score
1,GCTATCCA,0.0683
2,TCTATAAA,-0.117
3,CCCATGCA,-0.206
4,ACAACTAT,-0.00435
5,CATCTTAC,-0.257
6,AGCATAGG,-0.255
7,ACACTAGA,-0.217
8,CGGATATC,0.426
9,ATAGTCGA,-0.148
10,AAGTAGGC,-0.0522
11,AGATGCCG,0.286
12,AGGGGATG,-0.0701
13,ACGATGGA,-0.0923
14,ATTGATGA,0.0235
15,CGGCCCAA,0.173
16,CGGAACCA,0.41
17,ACCGCGAG,-0.0863
18,TTAGTAAA,0.0263
19,GACTAGCC,-0.0648
20,GCCCTTTA,-0.174
21,GCTTGTTA,-0.0811
22,AATAAGCT,-0.0963
23,ACCACCAT,0.0364
24,GATTTAAA,-0.105
25,CGTCTTGC,0.125

row,Sequence,PBM E-score
1,TTCACGAA,-0.257
2,ATGGCTTA,-0.0952
3,ACCTATCG,0.0705
4,TACTTTAA,-0.117
5,ACAAGGGG,-0.0735
6,AGGGCTTC,-0.16
7,GGCCGATA,0.171
8,ATCAAGAT,-0.0843
9,GCCATTAC,-0.0125
10,CAGGCCCC,-0.152
11,CCAATATA,-0.0487
12,CATTCCGG,0.358
13,GCTATAGC,-0.096
14,CCCCAGTC,-0.053
15,CAGCAATA,-0.144
16,AAGCTAGG,0.0266
17,AGCCGAGA,0.436
18,GGCACCCC,-0.106
19,CTGCGAAG,-0.272
20,AACAGAGC,-0.0496
21,ATAGACGC,0.00559
22,CCGCTGCA,-0.0547
